{"source": "PubChem BioAssay AID493208", "about": "(National Center for Advancing Translational Sciences (NCATS), 2011)", "note": "Out of some 44,000 compounds screened, about 340 (0.77%) were called active. About 5% were inconclusive and are not listed. Calls follow the shape of the dose curve; as a rule, active = well fitted inhibition curve with a large enough effect; inconclusive = small, poorly fitted or top-dose-only effect; inactive = flat fitted curve, though single readings scatter. Some of the results follow.", "data": [{"experiment": "Acumen qHTS Assay for Inhibitors of the mTORC1 Signaling Pathway in MEF (Tsc2-/-, p53-/-) Cells: Sytravon;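 also: plate controls were DMSO for no effect and rapamycin for full effect; nearly all actives have a fitted effect of over 50% in size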", "conditions": "phospho-rpS6 immunofluorescence/PI, 24 h; series mostly up to 38.3 µM; activity change, negative = inhibition: at the top concentration", "procedure,_shortened": "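Cell-based qHTS: Tsc2-/- p53-/- MEF, 24 h cpd, 37 °C; fix/perm, anti-phospho-S6 Alexa-488 + PI; Acumen 488 nm scan; pS6/PI ratio, % positive cells; rapamycin 7.5 nM = inhibition ref; PI count = viability.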", "values": [{"smiles": "Cc1ccc(Cl)cc1NC(=O)C1CCCN(c2cnccn2)C1", "note": "(stereo unspecified)", "activity change, negative = inhibition": "inactive: 4.21%"}, {"smiles": "CN(C)c1ccc(C(CNS(=O)(=O)c2ccc(Cl)cc2)N2CCOCC2)cc1", "note": "(stereo unspecified)", "activity change, negative = inhibition": "inactive: -3.43%"}, {"smiles": "CN(c1ccccc1C(=O)O)S(=O)(=O)c1ccc2[nH]c(=O)oc2c1", "activity change, negative = inhibition": "inactive: -5.12%"}, {"smiles": "CCOC(=O)c1ccccc1NC(=O)Cn1c(=O)n(Cc2nc(C)no2)c(=O)c2ccccc21", "activity change, negative = inhibition": "inactive: -9.79%"}, {"smiles": "O=C(CCn1c(=O)c2ccccc2n(Cc2cccc(Cl)c2)c1=O)NCCc1ccccc1", "activity change, negative = inhibition": "inactive: -3.15%"}, {"smiles": "CCN(CCCNC(=O)CSc1cc(=O)n(CC)c2ccccc12)c1ccccc1", "activity change, negative = inhibition": "inactive: -8.88%"}, {"smiles": "CCc1ccc(NC(=O)Nc2cn(C)c(=O)c3ccccc23)cc1", "activity change, negative = inhibition": "inactive: -22.5%"}, {"smiles": "O=C(NC1CCCC1)c1ccc2c(=O)n(Cc3ccccc3)c(SCc3ccc([N+](=O)[O-])cc3)nc2c1", "activity change, negative = inhibition": "inactive: 1.09%"}, {"smiles": "CCc1ccc(CNC(=O)Cn2ccc3cc(S(=O)(=O)N4CCCCCC4)ccc32)cc1", "activity change, negative = inhibition": "inactive: 0%"}, {"smiles": "COc1cccc(CNC(=O)CN2C(=O)CCc3cc(S(=O)(=O)N4CCOCC4)ccc32)c1", "activity change, negative = inhibition": "inactive: 7.06%"}, {"smiles": "CCc1ccc(-n2nc(CO)c(C(=O)NC(C)c3ccc(Cl)cc3)n2)cc1", "note": "(stereo unspecified)", "activity change, negative = inhibition": "inactive: -0.525%"}, {"smiles": "COc1ccc(OC)c2sc(N(Cc3cccnc3)C(C)=O)nc12", "activity change, negative = inhibition": "inactive: 1.3%"}, {"smiles": "Cc1ccc(Sc2ccc(N3CCCC(C(=O)Nc4ccc(Br)cc4)C3)nn2)cc1", "note": "(stereo unspecified)", "activity change, negative = inhibition": "inactive: -0.323%"}, {"smiles": "Cc1nc2ccn(Cc3cccnc3)c(=O)c2cc1C(=O)N1CCN(c2ccccc2F)CC1", "activity change, negative = inhibition": "inactive: 1.37%"}, {"smiles": "Cc1c(C)n(Cc2ccccc2)c2ccc(C(=O)N3CCN(c4ccccc4F)CC3)cc12", "activity change, negative = inhibition": "inactive: 5.5%"}, {"smiles": "O=C(NCCc1ccc(Cl)cc1)c1cc(-c2ccccc2)n[nH]1", "activity change, negative = inhibition": "inactive: -5.42%"}, {"smiles": "CCOc1ccc(-c2nnc(SCC(=O)NC3CCCCC3)nc2-c2ccc(OCC)cc2)cc1", "activity change, negative = inhibition": "inactive: 2.42%"}, {"smiles": "COc1ccc2c(c1)Cc1sc(NC(=O)c3ccccc3C)nc1-2", "activity change, negative = inhibition": "inactive: -2.7%"}, {"smiles": "Cc1ccc(C)c(N2CCN(c3nc4ccccc4c(=O)n3-c3ccc(Cl)cc3)CC2)c1", "activity change, negative = inhibition": "inactive: -0.256%"}, {"smiles": "COc1cccc(CNC(=O)c2ccc(-c3nc(CS(=O)c4ccccc4)c(C)o3)cc2)c1", "note": "(stereo unspecified)", "activity change, negative = inhibition": "inactive: 1.34%"}, {"smiles": "COc1ccc(NC(=O)Cn2cnc3ccc(S(=O)(=O)N4CCC(C)CC4)cc3c2=O)c(OC)c1", "activity change, negative = inhibition": "inactive: -2.36%"}, {"smiles": "COc1ccc(C2=C(C)C(N3CCC(C(=O)NCc4ccc(C)o4)CC3)=NS2(=O)=O)cc1", "activity change, negative = inhibition": "inactive: 0%"}, {"smiles": "CCN(CC)c1ccc(NC(=O)Cn2ncc3c(C)n(Cc4ccccc4F)c(C)c3c2=O)c(C)c1", "activity change, negative = inhibition": "inactive: 1.35%"}, {"smiles": "COc1ccc(/C=C/C(=O)Nc2ccc(C)cc2)cc1", "activity change, negative = inhibition": "inactive: -1.42%"}, {"smiles": "Cc1ccc(NC(=O)Cc2ccc(NC(=O)N3CCCCc4ccccc43)cc2)cc1Cl", "activity change, negative = inhibition": "inactive: 0.557%"}, {"smiles": "COc1cccc(-c2nc(S(=O)(=O)c3ccc(C)cc3)c(N3CCCCCC3)o2)c1", "activity change, negative = inhibition": "inactive: -11.1%"}, {"smiles": "CCOC(=O)c1ccc(N2C(=O)c3n[nH]c(-c4ccco4)c3C2c2ccc(OC)cc2OC)cc1", "note": "(stereo unspecified)", "activity change, negative = inhibition": "inactive: -7.65%"}, {"smiles": "CC(=O)c1ccc(NC(=O)Nc2ccc3snnc3c2)cc1", "activity change, negative = inhibition": "inactive: -5.97%"}, {"smiles": "Cc1cccc(C)c1-n1ncc(C(=O)NCCCN2CCCCC2)c1C1CCN(C(=O)OC(C)(C)C)CC1", "activity change, negative = inhibition": "inactive: -0.486%"}, {"smiles": "CCCCOc1ccc(C(=O)NCC(c2ccc(Cl)cc2)N2CCOCC2)cc1", "note": "(stereo unspecified)", "activity change, negative = inhibition": "inactive: -20.9%"}, {"smiles": "O=C(Nc1ccc(Oc2ccccc2)cc1)c1ccc(F)c(S(=O)(=O)N2CCN(c3cccc(Cl)c3)CC2)c1", "activity change, negative = inhibition": "inactive: -0.351%"}, {"smiles": "COC(=O)c1nnn(-c2cccc(C)c2)c1N", "activity change, negative = inhibition": "inactive: 3.93%"}, {"smiles": "CC(C)Oc1ccc(CNC(=O)CN2C(=O)CCn3nc(-c4cn(C)c5ccccc45)cc32)cc1", "activity change, negative = inhibition": "inactive: -6.29%"}, {"smiles": "COc1ccc(-n2c(SCc3nc(-c4ccc(C)cc4)no3)nnc2-c2ccccc2)cc1", "activity change, negative = inhibition": "inactive: 2.71%"}, {"smiles": "CCOC(=O)c1ccc(NC(=O)CN(Cc2ccc(C)cc2)S(=O)(=O)c2ccc(C)cc2)cc1", "activity change, negative = inhibition": "inactive: 20.5%"}, {"smiles": "COC(=O)c1ccc(NC(=O)CSc2n[nH]c(-c3ccccc3)n2)cc1", "activity change, negative = inhibition": "inactive: -2.78%"}, {"smiles": "CC1CN(C(=O)Nc2ccc(C(=O)NCc3ccccc3F)cc2)c2ccccc2S1", "note": "(stereo unspecified)", "activity change, negative = inhibition": "inactive: -8.14%"}, {"smiles": "Fc1ccccc1N1CCN(Cc2nnc(-c3ccc4c(c3)OCO4)o2)CC1", "activity change, negative = inhibition": "inactive: -4.8%"}, {"smiles": "Cc1ccccc1OCC(=O)Nc1ccc2oc(-c3ccc(F)cc3)nc2c1", "activity change, negative = inhibition": "inactive: 7.26%"}, {"smiles": "O=C(Nc1nc2c(Cl)cccc2s1)c1ccc(S(=O)(=O)N2CCc3ccccc32)cc1", "activity change, negative = inhibition": "inactive: -16.1%"}, {"smiles": "Cc1ccc(C)c(N2C(=O)N(Cc3ccccc3C)c3ccccc3S2(=O)=O)c1", "activity change, negative = inhibition": "inactive: -0.729%"}, {"smiles": "O=C(CSc1oc(-c2ccccc2)nc1S(=O)(=O)c1ccc(Br)cc1)c1ccccc1", "activity change, negative = inhibition": "inactive: 1.86%"}, {"smiles": "COc1ccc(C)cc1NC(=O)COc1cc(=O)n(C)c2ccccc12", "activity change, negative = inhibition": "inactive: -4.32%"}, {"smiles": "COc1ccc(NC(=O)c2ccco2)cc1NC(=O)COc1cccc(C)c1C", "activity change, negative = inhibition": "inactive: -9.05%"}, {"smiles": "CCc1ccc(NC(=O)CN(C)S(=O)(=O)c2ccc3c(c2)c(=O)n(C)c(=O)n3C)cc1", "activity change, negative = inhibition": "inactive: -7.2%"}, {"smiles": "CCOC(=O)c1cc2c(=O)n3ccccc3nc2n(Cc2ccco2)c1=NC(=O)c1ccc(Br)cc1", "activity change, negative = inhibition": "inactive: -1.69%"}, {"smiles": "O=C(Nc1ccc(Br)cc1)c1ccc(F)c(S(=O)(=O)NC2CCCCCC2)c1", "activity change, negative = inhibition": "inactive: -16.7%"}, {"smiles": "Cc1ccccc1-c1nc(SCC(=O)NCc2ccc(F)cc2)c2c(=O)n(C)c(=O)n(C)c2n1", "activity change, negative = inhibition": "inactive: 6.54%"}, {"smiles": "COc1ccc(-c2nc(-c3cc4cc(Br)ccc4oc3=O)cs2)cc1", "activity change, negative = inhibition": "inactive: -0.333%"}, {"smiles": "COc1ccccc1N1CCN(c2nc3ccccc3n3cnnc23)CC1", "activity change, negative = inhibition": "inactive: -1.9%"}, {"smiles": "Cc1cccc(C)c1NC(=O)Nc1csc2c1CCCC2", "activity change, negative = inhibition": "inactive: 0.87%"}, {"smiles": "O=C(CCn1nc(-c2ccccc2)c2ccccc2c1=O)Nc1ccccc1", "activity change, negative = inhibition": "inactive: 2.79%"}, {"smiles": "Cc1ccc(-n2nc(CO)c(C(=O)NCc3ccccn3)n2)cc1", "activity change, negative = inhibition": "inactive: -5.48%"}, {"smiles": "COc1ccc(OCc2ccc(-c3nc(C#N)c(N4CCN(c5ccccc5)CC4)o3)o2)cc1", "activity change, negative = inhibition": "inactive: 2.74%"}, {"smiles": "Cc1cc(-c2ccc(C)c(S(=O)(=O)Nc3cccc(C)n3)c2)on1", "activity change, negative = inhibition": "inactive: 3.88%"}, {"smiles": "CC(=O)Nc1ccc(NC(=O)c2cc(=O)c3ccccc3o2)cc1", "activity change, negative = inhibition": "inactive: 2.83%"}, {"smiles": "CCc1ccc(-n2nnc(-c3nsc(NC(=O)c4ccccc4Cl)n3)c2C)cc1", "activity change, negative = inhibition": "inactive: 8.93%"}, {"smiles": "Cc1ccc2c(c1)N(C(=O)N1CCC(C(=O)NCc3cccc(Br)c3)CC1)CCO2", "activity change, negative = inhibition": "inactive: 5.45%"}, {"smiles": "CCOC(=O)c1cc(-c2ccccc2)n(CCC(=O)NCc2ccccc2Cl)c1C", "activity change, negative = inhibition": "inactive: -6.5%"}, {"smiles": "COc1ccc(Nc2nc3ccccc3nc2NS(=O)(=O)c2ccc(C)cc2)c(OC)c1", "activity change, negative = inhibition": "inactive: 5.99%"}, {"smiles": "O=C(COc1ccccc1F)OCc1cc(=O)n2nc(C3CCCCC3)sc2n1", "activity change, negative = inhibition": "inactive: -13.1%"}]}]}
